# Source: publication PMC4336329 (PLoS ONE, 2015)
# Out of some 310,000 compounds screened, about 2,200 (0.71%) showed an effect of 50% or more. Effects have a minus sign here. The list shows a part of the results.
# Molecular target: human ether-à-go-go-related gene (hERG) potassium channel (human, UniProt Q12809)
# Assay: primary screen, population patch clamp on CHO cells stably expressing hERG
# Chain of human ether-à-go-go-related gene (hERG) potassium channel (Q12809 whole entry, looked up): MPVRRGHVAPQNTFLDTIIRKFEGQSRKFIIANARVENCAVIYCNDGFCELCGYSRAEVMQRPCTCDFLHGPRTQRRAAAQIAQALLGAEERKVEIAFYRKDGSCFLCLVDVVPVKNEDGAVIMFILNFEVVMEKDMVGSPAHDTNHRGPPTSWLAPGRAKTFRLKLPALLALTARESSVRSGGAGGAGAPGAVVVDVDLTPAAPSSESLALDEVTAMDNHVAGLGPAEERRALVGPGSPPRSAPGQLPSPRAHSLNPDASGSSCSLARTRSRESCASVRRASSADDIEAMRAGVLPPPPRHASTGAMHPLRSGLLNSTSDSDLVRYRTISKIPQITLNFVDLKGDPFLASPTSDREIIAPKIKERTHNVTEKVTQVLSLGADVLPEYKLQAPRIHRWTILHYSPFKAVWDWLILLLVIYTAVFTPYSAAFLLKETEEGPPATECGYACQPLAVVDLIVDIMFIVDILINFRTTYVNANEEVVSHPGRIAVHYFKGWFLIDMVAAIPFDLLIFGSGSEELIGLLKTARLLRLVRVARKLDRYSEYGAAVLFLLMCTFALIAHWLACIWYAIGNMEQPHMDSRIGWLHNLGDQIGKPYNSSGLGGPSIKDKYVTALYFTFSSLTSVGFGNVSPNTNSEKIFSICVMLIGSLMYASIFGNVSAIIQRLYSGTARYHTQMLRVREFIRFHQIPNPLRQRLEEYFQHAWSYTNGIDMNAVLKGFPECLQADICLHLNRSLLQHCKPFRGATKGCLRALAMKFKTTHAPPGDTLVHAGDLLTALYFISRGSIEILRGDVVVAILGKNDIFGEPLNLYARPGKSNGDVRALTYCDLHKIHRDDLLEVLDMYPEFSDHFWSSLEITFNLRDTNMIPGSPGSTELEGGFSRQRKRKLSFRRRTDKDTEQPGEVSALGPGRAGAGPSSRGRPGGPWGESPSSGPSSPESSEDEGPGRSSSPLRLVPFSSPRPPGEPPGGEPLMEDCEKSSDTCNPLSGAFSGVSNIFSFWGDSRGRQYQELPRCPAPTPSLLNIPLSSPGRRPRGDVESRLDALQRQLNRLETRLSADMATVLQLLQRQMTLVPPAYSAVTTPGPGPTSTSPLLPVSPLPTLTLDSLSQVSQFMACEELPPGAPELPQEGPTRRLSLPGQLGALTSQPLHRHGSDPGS
row,SMILES,"hERG current change (%, negative = inhibition) at 1uM"
1,CCCOc1ccccc1C(=O)N(Cc1ccc(C)o1)C1CCS(=O)(=O)C1 (stereo not shown),-4.38%
2,COCCN(C(=O)COC(=O)CSc1ccc(Cl)cc1)c1c(N)n(Cc2ccccc2)c(=O)[nH]c1=O,9.23%
3,COc1ccc(NC(=O)c2c(F)c(F)c(F)c(F)c2F)cc1Cl,6%
4,Cc1ccc(OCC(=O)N2CCN(Cc3ccc4c(c3)OCO4)CC2)cc1.O=C(O)C(=O)O,3.35%
5,O=C(OCc1nnc(-c2ccccc2)o1)c1ccc([N+](=O)[O-])s1,11.9%
6,C#CCN(CC=C)C(=O)CCc1nnc(COc2ccccc2)o1,14.3%
7,CN1CCN(P(=O)(c2ccccc2)c2nc3ccccc3s2)CC1 (stereo not shown),4.85%
8,CC(=O)Oc1cc2oc(=O)cc(C)c2cc1Cl,12.7%
9,Cc1nn(Cc2noc(C(=O)NCC3CCCO3)n2)c(C)c1Br (stereo not shown),11.5%
10,CCCCn1nnc(NC(=O)c2ccc(-c3cccc([N+](=O)[O-])c3)o2)n1,-27%
11,COc1cc2c(cc1OC)C(c1cccc(Cl)c1Cl)CC(=O)N2 (stereo not shown),12%
12,COc1ccc(Cn2c(=O)[nH]c3cc(C(=O)N4CCN(c5ccc(OC)cc5)CC4)ccc3c2=O)cc1,13%
13,COc1ccc(C(NC(C)=O)c2cc(Cl)c3cccnc3c2O)cc1 (stereo not shown),12.3%
14,CC1=C(C#N)C(=O)OC(C)(C)C1,12.7%
15,CC(=O)c1c(C)[nH]c(C(=O)CSc2nnc3ccccn23)c1C,-0.286%
16,CCCc1cc(=O)[nH]c(SC(C)C(=O)Nc2ccc3c(c2)OCCO3)n1 (stereo not shown),17.3%
17,CN(C)c1ncnc(N(C)C)c1[N+](=O)[O-],12%
18,CCOC(=O)c1sc2nccc(OC)c2c1N=CN(C)C,9.95%
19,COc1cccc(CN(C)C(=O)C2CCN(S(=O)(=O)c3ccc(C)cc3)CC2)c1OC,-0.0427%
20,COc1ccc(-c2noc3c2-c2nc(-c4ccc(C)cc4)sc2CC3)cc1,19%
21,COc1cc(/C=C2/C(=O)NN(c3cccc(F)c3)C2=O)ccc1OC(=O)c1ccco1,11.7%
22,CC(Cc1cccs1)NCc1ccc(Cl)cc1 (stereo not shown),2.3%

row,SMILES,"hERG current change (%, negative = inhibition) at 1uM"
1,CC(C)CNC(=S)N1CCN(Cc2ccc3c(c2)OCO3)CC1.O=C(O)C(=O)O,6.67%
2,CC1(C)Cc2nc(Cl)c(C#N)cc2CO1,3.41%
3,CCCC(=O)NC(=S)Nc1ccc(CN2CCOCC2)cc1,16.5%
4,Cc1[nH]n(-c2ccccc2)c(=O)c1C(C[N+](=O)[O-])c1ccc(Cl)cc1 (stereo not shown),3.17%
5,Cc1cccc(C)c1NC(=O)NC1(C(=O)N2CCCCC2)CCCCC1,12.5%
6,N=c1cc(C2(O)CCCCC2)n2c(nc3ccccc32)s1,-5.51%
7,Cc1cccc(S(=O)(=O)NCCc2ccccc2)c1,14.8%
8,CCCN1CCc2c(sc(NC(=O)c3ccc(S(=O)(=O)N(C)c4ccccc4)cc3)c2C(N)=O)C1,14.5%
9,COCCNC(=O)Cn1cc(C(=O)c2ccccc2F)c2ccccc21,10.9%
10,COc1cc2c(cc1OC)C(Nn1cnnc1)=NC1(CCCC1)C2,11.1%
11,O=S(=O)(NC1Cc2ccccc2C1)c1ccccc1,11.9%
12,CC(=O)Cn1c(N2CCC(Cc3ccccc3)CC2)nc2c1c(=O)[nH]c(=O)n2C,17%
13,Cc1ccc(NC(=S)N(CCCN2CCCC(C)C2)Cc2ccco2)cc1C (stereo not shown),-36.5%
14,CCOc1ccc(-c2cnc(SCC(N)=O)nc2N)cc1,11.1%
15,CC1CCN(S(=O)(=O)c2ccc(NC(=O)CSc3ncccc3C(=O)O)cc2)CC1,12.7%
16,Cc1nn(-c2ccccn2)c2c1-c1nc(N)ncc1CC2,9.53%
17,O=C(Nc1cccc(F)c1)C1CCCN(S(=O)(=O)c2cnc[nH]2)C1 (stereo not shown),21.3%
18,CC(NC(=O)COc1ccc(S(=O)(=O)N2CCCC2)cc1)c1ccccc1 (stereo not shown),13.7%
19,Cc1cc(Nc2ccccc2)nn1C(=O)c1ccc([N+](=O)[O-])cc1,11.9%
20,N#CCCOC1(C#CCN2CCCC2)CCCCC1,17.5%
21,O=C(CN1CCN(c2nc(-c3ccccc3)cs2)CC1)NNC(=O)c1ccco1,12.3%
22,CS(=O)(=O)N1CCN(c2ccccc2NC(=O)c2cccc3ccccc23)CC1,9.48%

row,SMILES,"hERG current change (%, negative = inhibition) at 1uM"
1,COC(=O)Oc1ccc(/C=N/NS(=O)(=O)c2ccccc2)cc1OC,12.6%
2,Cc1ccc(C(=O)c2coc3ccc(O)c(CN4CCN(C)CC4)c23)cc1,-25.5%
3,O=C(CSc1nc2ccccc2o1)N/N=C/c1ccco1,15.4%
4,COc1cccc(N(C(=O)Cn2nnc(-c3ccc(Cl)cc3)n2)C(C(=O)NCC2CCCO2)c2ccc(C)cc2)c1 (stereo not shown),17.4%
5,CC12CCC(C1)C(C)(C)C2OC(=O)c1ccccc1C(=O)O (stereo not shown),11.4%
6,O=C(COc1ccccc1[N+](=O)[O-])N/N=C/c1ccc(OC(=O)c2ccco2)cc1,2.95%
7,CCOc1ccc(Cn2c(=O)sc3ccccc32)cc1,14%
8,COC(=O)[C@@H]1C[C@@]2(O)[C@H](O)[C@H](O)[C@H](O)C[C@H]2N1Cc1cccc2ccccc12,10.9%
9,COc1ccc(NC(=O)Cn2c(=O)cnc3ccccc32)cc1S(=O)(=O)N1CCCCC1,6.72%
10,CCOC(=O)CSc1nc2ccccc2c(=O)n1CC1CCCO1 (stereo not shown),9.44%
11,Cc1ccc(Cl)cc1NC(=O)CNC(=O)N1CC(=O)Nc2ccccc21,5.73%
12,O=C(O)c1cc(-n2nnnc2SCc2ccc([N+](=O)[O-])cc2)ccc1Cl,6.05%
13,O=C(CSc1nnc(-c2ccccc2Cl)o1)Nc1ccc2c(c1)OCCO2,7.9%
14,CCO[C@H]1OC(C(=O)NCc2ccccc2)=C[C@@H](c2ccc(Br)cc2)[C@@H]1CCCO,4.51%
15,CCN(CC)CCN1C(=O)C(=O)/C(=C(/O)c2ccc(S(=O)(=O)N3CCOCC3)cc2)C1c1ccc(C)cc1 (stereo not shown),15.4%
16,CC(C)(C)NC(=O)CSC(=Nc1cccc(F)c1)NC#N,13.8%
17,COCCN(Cc1cc2cc(C)ccc2n2nnnc12)C(=S)Nc1ccc(C)cc1,6.71%
18,COc1ccc(OC)c(NC(=S)NCc2ccco2)c1,6.27%
19,CCN(CC)c1ccc2nc3ccccc3[n+](CC)c2c1.[I-],-2.6%
20,O=C1CC(c2ccc3c(c2)OCCO3)Oc2ccc([N+](=O)[O-])cc21 (stereo not shown),4.23%
21,Cc1cc2nc(/C=C/c3nc4cc(C)c(C)cc4[nH]3)[nH]c2cc1C,18.9%
22,COc1cc(CCN2C(=O)c3cccc4cccc(c34)C2=O)c(S(=O)(=O)N2CCC(C)CC2)cc1OC,-4.54%

row,SMILES,"hERG current change (%, negative = inhibition) at 1uM"
1,CN1/C(=C\C=Nc2ccc3ccccc3c2)C(C)(C)c2ccccc21,-75.1%
2,CC(=O)c1c(O)cc(C)oc1=O,20.5%
3,CCCCN1CCNC[C@@H]1c1ccccc1,10.2%
4,COc1ccc(CCNC(=O)COC(=O)c2cc(OC)c(OC)cc2OC)cc1OC,5.82%
5,CC(c1ccccc1)n1c(S(=O)(=O)O)nc2ccccc21 (stereo not shown),13.3%
6,CN(C)/C=C/C(=O)c1cnc(-c2ccccc2Cl)s1,-10.7%
7,CCCc1noc2c1C(c1cc(Br)ccc1F)C(C#N)=C(N)N2 (stereo not shown),1.3%
8,CCOc1ccc(NC(=O)c2oc3ccccc3c2NC(=O)CC)cc1,-6.74%
9,COc1cc(S(=O)(=O)N2CCN=C2c2ccccc2)c(OC)cc1Cl,26.3%
10,CNc1c2c(nn1C)CCCC2,17.5%
11,O=C(CCn1c(=O)[nH]c2ccsc2c1=O)N1CCN(c2ccc([N+](=O)[O-])cc2)CC1,0.952%
12,COc1ccc(-c2n[nH]c(=S)n2Cc2ccccc2)cc1OC,11.5%
13,CCC(C)NC(=O)C(=O)NCc1ccccn1 (stereo not shown),10.7%
14,COc1ccc(NC(=O)Nc2ccc(F)cc2F)cc1,7.66%
15,COc1cc(NC(=O)c2cccs2)c(OC)cc1NC(=O)CCn1nnc2ccccc21,-10.6%
16,CCn1c(SCC(=O)Nc2ccc3c(c2)oc2ccccc23)nnc1-c1ccc(N)cc1,9.88%
17,C/C(CCc1ccc2c(c1)OCO2)=N\N=C1\NC(=O)CC(C(=O)Nc2ccccc2F)S1 (stereo not shown),12.2%
18,CCCS(=O)(=O)c1c(S(=O)(=O)CCC)c2c(N)cccn2c1C(=O)c1ccc(Br)cc1,9.42%
19,Cc1nnc(SCC(=O)c2ccccc2F)n1Cc1ccccc1,5.67%
20,O=C(NCc1cccnc1)c1ccc(COc2cccc3ccccc23)o1,12.1%
21,COc1cc(C(=O)OCC(=O)Nc2ccc(N3CCOCC3)cc2)ccc1OCC(C)C,2.6%
22,CCOc1cccc(NC(=O)c2ccc(S(=O)(=O)N3CCCC3)cc2)c1,3.69%
